Test results reported in PubChem BioAssay AID504832 (National Center for Advancing Translational Sciences (NCATS), 2011).
The whole screen tested about 310,000 compounds, of which about 18,000 (5.8%) were called active. Inconclusive results, whose numbers are uncertain, are shown with a selection of clear calls. The call rests on the fitted dose curve; in most records, active means well fitted inhibition curve with a large enough effect; inconclusive means small, poorly fitted or top-dose-only effect, or another doubt; inactive means no such curve, though single readings can be large or run the other way. No potency is given beside an inconclusive call; the fits are too rough.

assay: Primary qHTS for delayed death inhibitors of the malarial parasite plastid, 48 hour incubation; details: P. falciparum luciferase growth in erythrocytes; series mostly up to 28.7 µM
In short: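 Luciferase-expressing P. falciparum in infected erythrocytes (2% hematocrit, 0.1% parasitemia final) in RPMI 1640/0.5% Albumax were exposed to compound for 48 hours at 37 C, 5% CO2; growth read as luminescence.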
Potency means the concentration at half of the fitted maximal effect; tags describe the fitted curve by direction and shape.

SMILES	Potency
Cc1nnc(SCC(=O)N(C)C2CCCCC2)s1	inactive
CCOc1c(Cl)cc(C(=O)NCCN2CCCCC2)cc1Cl	inconclusive [inhibitor, single point]
COc1ccc(N2C(=O)c3cccc4c(N(C)CCO)ccc(c34)C2=O)cc1	active: 10.4 µM
CC(C)Cn1nc(NC(=O)C(C)(C)C)c2cc3ccccc3nc21	active: 9.28 µM
COc1ccc(N2CCN(C(=O)C3CCN(S(=O)(=O)c4ccc5c(c4)oc(=O)n5C)CC3)CC2)cc1	inconclusive [inhibitor, partial curve]
Cc1ccc(NC(=O)C2=C(c3ccccc3)S(=O)(=O)CCS2(=O)=O)cc1	inactive
COc1ccc(S(=O)(=O)N(C)CC(=O)NCc2ccco2)cc1	inconclusive [inhibitor, full curve, poor fit]
COCCn1c(SCC(=O)N2CCCC2)nnc1-c1ccco1	inactive
Cc1cccc(NC(=O)NCc2ccccn2)c1	inconclusive [inhibitor, single point]
N#Cc1c(N)n(CCNC(=O)c2cccs2)c2nc3ccccc3nc12	inconclusive [inhibitor, single point]
COc1ccc(-c2cnn3c4c(c(C)nc23)CCN4C2CCCC2)cc1OC	inconclusive [inhibitor, single point]
CCCn1nnc(NC(=S)NC(=O)Cc2ccccc2)n1	inconclusive [inhibitor, single point]
COc1cccc(C2C(C(N)=O)=C(C)Nc3nc(CCCO)nn32)c1 (stereo unspecified)	inactive
O=C(CSc1nc(-c2ccccc2)cc(C(F)(F)F)n1)NCc1cccs1	inactive
CC(=O)c1ccc2c3c(cccc13)C(=O)N(c1c(C)nn(C)c1C)C2=O	inconclusive [inhibitor, partial curve]
Cc1ccc2nc(NC(=O)C3CCCN(S(=O)(=O)c4cccc5nsnc45)C3)sc2c1 (stereo unspecified)	active: 10.4 µM
CCOC(=O)c1c(NCc2ccccc2)n[nH]c1C	inactive
CN1CCN(C(=O)c2ccc(COc3cc(Cl)ccc3Cl)o2)CC1	inactive
CC1=C(C(=O)OCCCBr)C(c2ccc3c(c2)OCO3)NC(=O)N1 (stereo unspecified)	inconclusive [inhibitor, single point]
O=C(COC(=O)CNS(=O)(=O)c1ccc(F)c(F)c1F)NCCc1ccccc1	inactive
Cc1ccc(N(CC(=O)NN=C2CCN(C)CC2)S(=O)(=O)c2ccccc2)c(C)c1	inactive
Cc1cc(C)cc(NCc2cc(=O)oc3cc(C)c(O)cc23)c1	inconclusive [inhibitor, single point]
Cc1nc(N2CCN(c3ccccn3)CC2)c2c(C)c(C(=O)Nc3ccc(Br)cc3C)sc2n1	active: 2.94 µM
CC(C)Cc1nnc(NC(=O)c2cc(-c3ccncc3)nc3ccccc23)s1	inconclusive [inhibitor, single point]

SMILES	Potency
O=C1C=C(Nc2ccc(Cl)cc2)CC(c2ccc(Cl)cc2)C1 (stereo unspecified)	active: 9.28 µM
Cc1cc(C)n(-c2ccc(C(=O)OCC(=O)N(CC(C)C)C3CCS(=O)(=O)C3)cc2)n1 (stereo unspecified)	inconclusive [inhibitor, single point]
CC(C)(C)S(=O)(=O)/C(C#N)=N/Nc1ccc(Cl)cc1	inconclusive [inhibitor, single point]
Cc1onc(-c2c(F)cccc2Cl)c1C(=O)Nc1cccc(S(=O)(=O)NC2=NCCC2)c1	inconclusive [inhibitor, single point]
C=CCn1cc(C(=O)N2CCN(c3ccccc3)CC2)c(=O)c2cc(S(=O)(=O)N3CCCC3)ccc21	inconclusive [inhibitor, partial curve, poor fit]
O=C(NCc1ccc(F)cc1)c1ccc(S(=O)(=O)N2CCCCC2)cc1	inconclusive [inhibitor, single point]
O=C(CN1C(=O)NC2(CCCCC2)C1=O)N1CCOCC1	inactive
Cc1cc(-c2nn(-c3ccccc3F)cc2CNCCc2cnc[nH]2)c(C)s1	inconclusive [inhibitor, partial curve]
CN1CCN(c2ccccc2NC(=O)c2ccc(N3CCOCC3)c([N+](=O)[O-])c2)CC1	inconclusive [inhibitor, single point]
CC1=C(/C=C/c2ccccc2)CCN(C)C1	inconclusive [inhibitor, partial curve, poor fit]
COCCN1CC(O)=C(c2nc3ccccc3c(=O)[nH]2)C1=N	inconclusive [inhibitor, partial curve, poor fit]
Cc1nnc(SCc2nc3sc(C(=O)O)c(C)c3c(=O)[nH]2)s1	inconclusive [inhibitor, partial curve, poor fit]
COc1ccc(Cl)cc1C(=O)NNC(=O)CN1C(=O)C2CC=CCC2C1=O (stereo unspecified)	inactive
CCCC(c1nnnn1Cc1ccccc1)N1CCN(c2ccccc2OC)CC1 (stereo unspecified)	inactive
CC1=CCC(C(=O)N/N=C/c2cccs2)C(c2ccc(F)cc2)C1 (stereo unspecified)	inconclusive [inhibitor, single point]
CCOc1ccc(NC(=O)CSc2nc3[nH]ncc3c(=O)[nH]2)cc1	inconclusive [inhibitor, single point]
CC(C)(CO)Cc1cc(C(C)(C)C)c(O)c(C(C)(C)C)c1	inconclusive [inhibitor, single point]
COc1cc(/C=N/n2cnnc2)ccc1OC(=O)c1cccnc1	inconclusive [inhibitor, partial curve]
C=CCn1c(=O)c2c3c(sc2n2c(Nc4ccc(OC)cc4)nnc12)CCCC3	inconclusive [inhibitor, partial curve, poor fit]
CSc1ccccc1NC(=S)NC1CCCC1	inconclusive [inhibitor, single point]
Cc1nc(SCc2ccccc2)c([N+](=O)[O-])[nH]1	inconclusive [inhibitor, full curve, poor fit]
COc1ccc(NC(=O)CSc2nc3ccccc3cc2Cc2ccccc2)cc1	inconclusive [inhibitor, full curve]
COc1ccccc1CNCc1cc(=O)oc2c(C)c(C)ccc12	inactive
O=C(CN1CCC(n2nnc3cc(F)ccc32)CC1)Nc1ccccc1N1CCOCC1	active: 1.65 µM

SMILES	Potency
CCOC(=O)c1sc2nc(C)nc(SC(C)C(=O)N(C)c3ccccc3)c2c1C (stereo unspecified)	active: 11.7 µM
Nc1nc(CSC(=S)N2CCOCC2)nc(Nc2ccccc2)n1	inactive
Cc1cc(C)n(C(=O)CN2C(=O)COc3ccccc32)n1	inactive
CCn1ccnc1CN1CCCC(C(=O)c2cccc(C(F)(F)F)c2)C1 (stereo unspecified)	active: 9.28 µM
CCOC(=O)c1ccc(S(=O)(=O)N2CCC(C(=O)NCC3CCCCC3)CC2)cc1	inconclusive [inhibitor, single point]
Cc1cc(/C=C2\C(=O)NC(=O)N(c3ccc(F)cc3)C2=O)c(C)n1-c1cccc(C(=O)O)c1	inactive
O=C1CC(N2CCN(c3ccccc3)CC2)C(=O)N1c1ccc2c(c1)OCO2 (stereo unspecified)	inactive
CC(=O)Oc1ccccc1C1=NN(C(=O)/C=C/c2ccccc2)C(c2ccccc2)C1 (stereo unspecified)	inconclusive [inhibitor, single point]
CN1CCc2c(sc3nc(SCC(N)=O)n(-c4ccccc4)c(=O)c23)C1	inconclusive [inhibitor, partial curve, poor fit]
c1ccc(NC2=NCCN2CCCC2CCCC2)cc1	inconclusive [inhibitor, single point]
Cc1nc2nc(SCC(=O)NCCCN3CCCC3)nn2c(C)c1Cc1ccccc1Cl	inconclusive [inhibitor, partial curve, poor fit]
O=C(/C=C/c1ccco1)Nc1ccccn1	inactive
Cc1ccc(N2CN(Cc3cccnc3)CNC2=S)c(C)c1	inactive
COc1ccc(C2CCN(CC(=O)N(C)C)CC2O)cc1 (stereo unspecified)	inconclusive [inhibitor, single point]
O=C(O)CCc1ccc(-c2ccc(F)cc2)n1Cc1ccco1	inactive
COc1ccc(CNC(=O)C2CCN(C(=O)N3CCOc4ccc(C)cc43)CC2)cc1	inconclusive [inhibitor, single point]
Cc1nn(CC(=O)NNC(=O)c2ccc(Br)cc2)c(C)c1[N+](=O)[O-]	inconclusive [inhibitor, single point]
COc1cccc(CCNc2ccc(N3C(=O)CC(C)C3=O)cc2[N+](=O)[O-])c1 (stereo unspecified)	inconclusive [inhibitor, single point]
CCOc1ccccc1N(CC(=O)Nc1ccccc1F)S(=O)(=O)c1ccccc1	active: 10.4 µM
Cc1cccc(NC(=O)COc2ccc(Br)cc2)n1	inactive
Cc1ccc(Oc2cc([N+](=O)[O-])cc3c2C(=O)Nc2ccccc2O3)cc1	inconclusive [inhibitor, single point]
CCCOC(=O)C1=C(C)NC2=C(C(=O)CC(C)(C)C2)C1c1cccnc1 (stereo unspecified)	inconclusive [inhibitor, partial curve, poor fit]
Cc1nc2ccccc2c2oc(C(=O)N3CCN(C(=O)c4ccco4)CC3)cc12	inconclusive [inhibitor, single point]
